Measurements published in the RNAGym collection of RNA variant scans (doi:10.1073/pnas.2313332121).
Variants at the background level are over-represented here.

B1: TPR 5TU (parent)
chain: GGAUCUUCUCGAUCUAACAAAAAAGACAAAUCUGCCACAAAGCUUGAGAGCAUCUUCGGAUGCAGAGGCGGCAGCCUUCGGUGGCGCGAUAGCGCCAACGUUCUCAACUAUGACACGCAAAACGCGUGCUCCGUUGAAUGGAGUUUAUCAUG

Variants of: B1
Test: polymerase ribozyme fitness, log enrichment relative to wild type (log ratio); higher = more active; in vitro selection for triplet polymerase activity
Procedure, shortened: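 Mutant libraries for each subunit of a heterodimeric triplet polymerase ribozyme were made by PCR and then transcribed. Each library underwent one round of in vitro selection in triplicate: annealing with a biotinylated primer, the partner subunit and triplets, frozen incubation at −7 °C, gel excision of extended constructs, streptavidin-bead capture and RT-PCR. Input and output libraries were Illumina-sequenced, and only genotypes with ≥10 input reads and ≥1 read per output were kept. Fitness is the logarithm, base 2, of genotype enrichment over wild-type enrichment, computed from inverse-variance-weighted replicate averages.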

| Variant | polymerase ribozyme fitness (log ratio) |
| --- | --- |
| A37C A60U C76U U82C C95A C132G | ≤ -4.2 |
| A37C A60U U61A G84U C85A C108A C125G | ≤ -4.2 |
| A37C C38G C85U | -1.28 |
| A37C C38U U145C | 0.0837 |
| A37C C43G C93U C96G A97G | ≤ -4.2 |
| A37C C51U U61A U78G C95U A98G U130G C131U | ≤ -4.2 |
| A37C C54G U77C G83C | ≤ -4.2 |
| A37C C54U A60C U61G C96U C99A G112A A115G | ≤ -4.2 |
| A37C C63G G65A C129A U139G U151A | ≤ -4.2 |
| A37C C69U G88C | ≤ -4.2 |
| A37C C72U A91C G143A | ≤ -4.2 |
| A37C C79G | ≤ -4.2 |
| A37C C95A A138C G141C | ≤ -4.2 |
| A37C C95U | -2.04 |
| A37C C96G A106G | -0.258 |
| A37C C96G U101G A150C U151A | ≤ -4.2 |
| A37C C114U | -3.07 |
| A37C G48A C79A U90G C96G A150C | ≤ -4.2 |
| A37C G48A C79G A115G | ≤ -4.2 |
| A37C G48A C85U C96A | ≤ -4.2 |
| A37C G62A C63U C72U A113G G128A | ≤ -4.2 |

| Variant | polymerase ribozyme fitness (log ratio) |
| --- | --- |
| A37C G67C C87U | ≤ -4.2 |
| A37C G74U C76G C131U G140C | ≤ -4.2 |
| A37C G80C G83A C99A U144A U145C | ≤ -4.2 |
| A37C G83A A115U C129A | ≤ -4.2 |
| A37C G86A C103A A120U | ≤ -4.2 |
| A37C G92A U146G | -4.01 |
| A37C U44G G58A A73U C108U A142C | ≤ -4.2 |
| A37C U53A C54G G133C G140C | ≤ -4.2 |
| A37C U53C C54U G83A G94A | ≤ -4.2 |
| A37C U144A | -0.958 |
| A37G A41G C54U G59U C103G | ≤ -4.2 |
| A37G A47G G74C C76A G80U | ≤ -4.2 |
| A37G A47U G81C C95G U102G A120U U134C U135G A137C | ≤ -4.2 |
| A37G A49C A64U A73C U77C G86U G128A A142C | ≤ -4.2 |
| A37G A49G G59A C69U C87A U101G A107G C118A U148A | ≤ -4.2 |
| A37G A49U C76G U127A G141A U144G | ≤ -4.2 |
| A37G A52G U55A U56A C85U C103U U145A | -3.09 |
| A37G A52U G86C C114G G152C | ≤ -4.2 |
| A37G A60C | -3.15 |
| A37G A60G G68C A142C | ≤ -4.2 |
| A37G A91C A138C G140U | ≤ -4.2 |

| Variant | polymerase ribozyme fitness (log ratio) |
| --- | --- |
| A37G C51U A66U G83A U151G | ≤ -4.2 |
| A37G C54U U55A G86A A89U U109G A138G | ≤ -4.2 |
| A37G C95A U127G | -4.15 |
| A37G C96A U102A C131U G136U | ≤ -4.2 |
| A37G C108U C125G | ≤ -4.2 |
| A37G G42C G88U A115G | ≤ -4.2 |
| A37G G46A C93U A98G | ≤ -4.2 |
| A37G G46C A52G C114G A119C | ≤ -4.2 |
| A37G G50U G74A C87U | ≤ -4.2 |
| A37G G58C C85A | -3.83 |
| A37G G74U C85A A98U | ≤ -4.2 |
| A37G G92U C132U G133A U135G U151C | ≤ -4.2 |
| A37G U44A A52C G86U C95U U101G U144C | ≤ -4.2 |
| A37G U45A C96U | ≤ -4.2 |
| A37G U53A G74A G83A A98G C123G G140C U146C | ≤ -4.2 |
| A37G U53A U134G | -3.7 |
| A37G U78A C93G C116U | ≤ -4.2 |
| A37U A40C G67C U90G C96U A142G | ≤ -4.2 |
| A37U A41C A47C G59U U90A C118A | ≤ -4.2 |
| A37U A47C U55A C75G G80C C103A C116G A119U C125A G141C | ≤ -4.2 |
| A37U A49G C93A G133U | ≤ -4.2 |

| Variant | polymerase ribozyme fitness (log ratio) |
| --- | --- |
| A37U A52C A91U G124A G141U | ≤ -4.2 |
| A37U A52G C76U C95A | -2.41 |
| A37U A73G C75A C85U C87U | ≤ -4.2 |
| A37U A121G G152U | -3.84 |
| A37U A122U C129G G143A U145A | ≤ -4.2 |
| A37U A142G G152U | -4.13 |
| A37U C43U C87G U127G G136A | ≤ -4.2 |
| A37U C51A G58A C95U G124U U134A | ≤ -4.2 |
| A37U C54A C57A C93U | -3.28 |
| A37U C79U G84U | ≤ -4.2 |
| A37U C103A | -3.85 |
| A37U G42A C85A A138G | ≤ -4.2 |
| A37U G50A G74U A120C C129A G143C | ≤ -4.2 |
| A37U G58A G59C A121U | -0.167 |
| A37U G58C A97G C132U | -2.67 |
| A37U G68C | ≤ -4.2 |
| A37U G88U G92C A122G G133U G143A A150U | -4.06 |
| A37U U55A C93G G124A C125G U134G | ≤ -4.2 |
| A37U U55C G68A U78A C85U | ≤ -4.2 |
| A37U U55G A60G C85G A107C C131U | ≤ -4.2 |
